According to ChEMBL document CHEMBL1201862, “PubChem BioAssay data set” (2004):

Test system: NCI-H322M
Assay: NCI-60 cell line screen, 48 h

Structure (SMILES)	GI50
N#CC1CCN2N=C(c3ccccc3)SC12c1ccccc1 (stereo unspecified)	inactive: 69.2 µM
O=C1/C(=C/c2ccc([N+](=O)[O-])cc2)C(=O)N(c2ccccc2)C1c1ccccc1 (stereo unspecified)	inactive: > 10 µM
NC(=O)NNC/C(Cl)=C(\Cl)C(=O)O	inactive: > 100 µM
CC(C)(C)c1cc(C(=O)/C=C/c2ccc(C(=O)O)cc2)cc(C(C)(C)C)c1	inactive: 2.84 µM
C1=CC2C=CC(C=C1)P2c1ccccc1 (stereo unspecified)	inactive: > 100 µM
Cc1sc(Cc2ccccc2)nc1-c1ccc(N)cc1	inactive: 42 µM
O=C1c2ccccc2-n2c1nc1cc(Cl)ccc1c2=O	inactive: > 100 µM
Oc1ccc2c3c1OC1c4[nH]ncc4C[C@H]4[C@@H](C2)N(CC2CC2)CC[C@]314 (stereo partly specified)	inactive: > 100 µM
Cc1ccc(Cc2n[nH]c(=O)n2Nc2ccccc2)cc1	inactive: > 100 µM
CC(=O)OC1C(C)OC(OC(=O)C2CCC3C(C2)OC2(CC(OC(=O)/C=C/c4ccccc4)C(C)CO2)C32CO2)C(OC2OC(C)C(O)C(OC(C)=O)C2O)C1O (stereo unspecified)	active: < 0.01 µM
CN(C)CCNc1nc2c(no[n+]2[O-])c2ccccc12.[O-][Cl+3]([O-])([O-])O	inactive: 21.9 µM
C[P+](C)(C)C	inactive: > 100 µM
O=C1CCCCC1C(O)(C(F)(F)F)C(F)(F)Cl (stereo unspecified)	inactive: > 10 µM
O=C(O)Cn1cc([N+](=O)[O-])c(=O)c2ccccc21	inactive: > 100 µM
O=C(O)CCC(=O)c1ccc(Cl)cc1	inactive: > 100 µM
Cn1c(=O)c2nc3sc4c(n3c2n(C)c1=O)C(=O)c1ccccc1C4=O	inactive: > 45.1 µM
COc1ccccc1NC(=O)C1=C(C)NC(C)=C(C(=O)Nc2ccccc2OC)C1c1cccc2ccccc12	inactive: > 100 µM
O=C(CCc1ccccc1CO)NCCc1ccccc1	inactive: > 100 µM
CC1(C)C(C#N)=[N+]([O-])C(C)(C)N1O	inactive: 78.7 µM
N=C(N)NCC(N)C(=O)O (stereo unspecified)	inactive: > 100 µM
C[N+](C)(N)Cc1nc(-c2ccc(Cl)cc2)no1	inactive: > 100 µM
c1ccc(Nc2nnc(CCCCCCCCc3nnc(Nc4ccccc4)o3)o2)cc1	inactive: > 100 µM
Cn1c(=O)c(NC(=O)C(Cl)(Cl)Cl)nc2ccccc21	inactive: > 100 µM

Structure (SMILES)	GI50
COC(CC1(/C=C/O[Si](C(C)C)(C(C)C)C(C)C)C(=O)N(COCC[Si](C)(C)C)c2ccccc21)OC (stereo unspecified)	inactive: 81.8 µM
CN(C)[C@@H]1C(O)=C(C(=O)NCNc2nc3[nH]nnc3c(=O)[nH]2)C(=O)[C@@]2(O)C(O)=C3C(=O)c4c(O)cccc4[C@@](C)(O)[C@H]3C[C@@H]12	inactive: 33.5 µM
O=C1C(=c2cc3c(c4ccccc24)=NC24CCCCC2C(c2ccccc2)C=C(c2ccccc2)N34)C(=O)c2ccccc21 (stereo unspecified)	inactive: 96.8 µM
C=CCOC(=O)C[C@H](NC(=O)[C@H](Cc1ccc(O)cc1)NCC(F)(F)F)C(=O)OCC=C	inactive: 70.5 µM
O=C(Sc1c(-c2ccccc2)c(=O)n(-c2ccccc2)c(=S)n1-c1ccccc1)c1ccccc1	inactive: > 100 µM
O=C(CCC(=O)Nc1ccc(Cl)c(Cl)c1)CC(=O)c1ccc(Cl)cc1	inactive: > 100 µM
CCOP1(=O)CC(C)=C(Cl)C(OC)C1 (stereo unspecified)	inactive: > 100 µM
CNC(=O)C(CC(C)C)NC(=O)C(C)NC(=O)C(Cc1ccc(OCc2ccccc2)cc1)NC(=O)C(COCc1ccccc1)NC(=O)OC(C)(C)C (stereo unspecified) (Boc-S(Bn)Y(Bn)AL-NHMe; configuration not given here)	inactive: > 100 µM
COc1ccc(-n2cnc3c(NC(C)(C)C(=O)O)ncnc32)cc1	inactive: > 100 µM
COC(=O)C1=C(OC(=O)/C(=C/c2ccc(Cl)cc2)c2ccc(Cl)cc2)C(C(=O)OC)[C@]2(O)[C@@H](C(=O)OC)[C@H]1C[C@@H](c1ccccc1)[C@@H]2C(=O)OC (stereo partly specified)	inactive: > 100 µM
COC(=O)C(Cc1ccccc1)C(=O)NC(CNC(=O)OCc1ccccc1)C(=O)OCc1ccccc1 (stereo unspecified)	inactive: 65.9 µM
O=C1/C(=C/c2ccc(Cl)cc2)N=C(c2ccccc2)N1c1nc2c(Cl)cc(Cl)cc2s1	inactive: 31.5 µM
Cc1c(NC(=S)NN)c(=O)n(-c2ccccc2)n1C	inactive: > 100 µM
CSc1c(C(=O)Nc2ccc(C)cc2)c(N)nn1-c1ccccc1	inactive: 88.9 µM
COC(=O)c1cc2c(cc1C(=O)OC)[C@@]1(C)CCCC(C)(C)C1CC2 (stereo partly specified)	inactive: 16 µM
CC(C)C(Nc1c2ccccc2[n+](C)c2ccccc12)C(=O)O (stereo unspecified)	inactive: > 100 µM
Cc1ccccc1C(C#N)/C(=N/NC(N)=S)C(=O)Nc1c(C)cccc1C (stereo unspecified)	inactive: > 100 µM
CCN(CC)c1ccc(/N=N/c2ccc(-c3nc4cccnc4s3)cc2)cc1	inactive: > 100 µM
COc1c(C)c(OC)c2c(c1O)[C@@H]1[C@@H]3Cc4c(OC)c(C)c(OC)c(O)c4[C@H](CNC(=O)c4cnc5ccccc5n4)N3[C@@H](C#N)[C@H](C2)N1C	active: 0.0105 µM
Cc1ccc(/C=C/C(=O)c2ccc([N+](=O)[O-])cc2)cc1	inactive: > 100 µM
CCOC(=O)NC(=O)c1cn(CCN2CCN(c3ncnc4[nH]cnc34)CC2)c(=O)[nH]c1=O	inactive: > 100 µM
O=C(Nc1cccs1)c1c(O)[nH]c(=S)[nH]c1=O	inactive: > 100 µM
O=C1OC(OC/C(Br)=C(\Br)COC2OC(=O)C(Cl)=C2Cl)C(Cl)=C1Cl (stereo unspecified)	inactive: 18.7 µM

Structure (SMILES)	GI50
COc1ccc2[nH]c(C(=O)N3CC(CCl)c4ccc([N+](=O)[O-])cc43)cc2c1 (stereo unspecified)	inactive: > 100 µM
O=C1c2ccccc2C(=O)N1/N=C\c1ccc(Br)cc1	inactive: > 10 µM
COc1ccc(/C=N/N=C(\N)NO)c(OC)c1	inactive: 49.1 µM
C=CCNC(=O)NCCCCC(NC(C)=O)C(=O)NCc1ccccc1 (stereo unspecified)	inactive: > 100 µM
O=C(OCCOCCOC(=O)c1c[nH]cc1-c1ccccc1)c1c[nH]cc1-c1ccccc1	inactive: 23.8 µM
Nc1nc(=O)c2cc(NCc3ccc(C(=O)NC(CCC(=O)O)C(=O)O)cc3)ccc2[nH]1 (stereo unspecified)	inactive: > 100 µM
Cc1nc2ccccc2c(=O)n1NC(=O)c1ccccc1[N+](=O)[O-]	inactive: > 100 µM
COc1ccc(C(=O)/C=C/c2ccc(OCC(=N)N)cc2)cc1OC	inactive: 2.9 µM
C=C1c2nc3ccccc3n2C=C(c2ccc(OC)cc2)N1c1ccc(OC)cc1	inactive: 22.7 µM
CC(C)[C@](O)(C(=O)OCC1CC[N+]2([O-])CC[C@@H](O)C12)[C@H](C)O (stereo partly specified)	inactive: > 375 µM
CC1=NN(C(=O)CC(=O)Nc2ccccc2)C(=O)C1/N=N/c1ccc(C(=O)O)cc1 (stereo unspecified)	inactive: > 100 µM
CN(CCCNC(=O)c1cn(C)c2c1ccc1cc(Cl)ccc12)CCCNC(=O)c1cn(C)c2c1ccc1cc(Cl)ccc12	inactive: 2.33 µM
O=C(CC(=O)Nc1ccc(C(=O)O)cc1)Nc1ccc(C(=O)O)cc1	inactive: > 100 µM
C=C(Cl)C(=C)CCC(Cl)C(C)(C)Cl (stereo unspecified)	inactive: > 100 µM
O=C1/C(=C/c2ccc(O)c(CN3CCCCC3)c2)CCC/C1=C\c1ccc(O)c(CN2CCCCC2)c1	inactive: 15.5 µM
COC(=O)C(CC=O)C(=O)C(=O)Nc1cccc(C(F)(F)F)c1 (stereo unspecified)	inactive: > 100 µM
Oc1ccc(Br)cc1/C=N/c1ccc(/N=C/c2cc(Br)ccc2O)cc1	inactive: > 100 µM
Cc1nc(C(N)=S)sc1C(=O)CC(=O)C(=O)Nc1c(C(C)C)cccc1C(C)C	inactive: 31.3 µM
CN(C)CCCNC(=O)N/N=C/c1ccccc1	inactive: > 100 µM
CCOC(=O)/C=C(\C(=O)OCC)n1ccc(=O)[nH]c1=O	inactive: 32.8 µM
c1cc2c(s1)-c1sccc1C21OCCO1	inactive: > 100 µM
c1ccc2c(c1)sc1c3cnccc3ccc21	inactive: > 100 µM
O=[N+]([O-])c1cnc(N(CCO)CCO)s1	inactive: > 100 µM

Structure (SMILES)	GI50
CC(=O)Nc1ccc(S(=O)(=O)Nc2cnc3ccccc3n2)cc1	inactive: > 100 µM
CC1(C)O[C@@H]([C@@H](O)[C@H](O)C2SCCCS2)[C@@H](CO)O1	inactive: > 100 µM
S=C1SC(=N\c2ccccc2)/C(=N/c2ccccc2)N1c1ccccc1	inactive: > 100 µM
Cc1cc(C)nc(Nc2nc3cc([N+](=O)[O-])ccc3[nH]2)n1	inactive: > 100 µM
O=C(C/C(=N/O)C(F)(F)F)c1cccs1	inactive: > 100 µM
CC1C2CC(CC(=O)N2)C1(C)C (stereo unspecified)	inactive: > 100 µM
CC(C)NC(=O)OCc1c2c(n(C)c1COC(=O)NC(C)C)-c1ccccc1CC2	inactive: 16.7 µM
N#CC1C(=O)Nc2sc(C(=O)c3ccc(Br)cc3)c(N)c2C12CCCCC2 (stereo unspecified)	inactive: 18.9 µM
CCOC(=O)C1C(c2ccc(Cl)cc2Cl)NC(c2ccc(C)cc2)C(C(=O)OC)S1(=O)=O (stereo unspecified)	inactive: > 100 µM
CC(CO)(CO)N1C(=O)C2C3c4ccccc4C(c4ccccc43)C2C1=O (stereo unspecified)	inactive: > 100 µM
c1ccc2c(C3CCN(CCN4CCOCC4)C3)c[nH]c2c1 (stereo unspecified)	inactive: > 100 µM
O=C(CC1Sc2ccccc2NC1=O)Nc1ccc([N+](=O)[O-])cc1[N+](=O)[O-] (stereo unspecified)	inactive: 36.6 µM
O=C(Nc1ccccc1Br)c1cccc([N+](=O)[O-])c1O	inactive: 3.94 µM
Nc1ncnc2c(C3OC(CO)C(O)C3O)c[nH]c12 (stereo unspecified)	active: < 0.0141 µM
Cc1ccc([N+](=O)[O-])cc1NC(=O)C(=O)Cc1cc(=O)oc2cc(O)ccc12	inactive: > 100 µM
CCOc1cc(/C=N/c2ccc(Oc3ccc(Cl)cc3)c(Cl)c2)ccc1O	inactive: 24 µM
C[n+]1c2ccccc2c(NC(CS)C(=O)O)c2ccccc21 (stereo unspecified)	inactive: 48.1 µM
CCN(CC)CC(O)CNc1ccc(NCC(O)CCl)c2c1C(=O)c1ccccc1C2=O (stereo unspecified)	inactive: 7.87 µM
O=C(NC1=C(Cl)C(=O)c2ccccc2C1=O)c1ccccc1	inactive: > 100 µM
O=C1C=C(c2ccccc2)O/C1=C\C(=O)c1ccc(Cl)cc1	inactive: > 100 µM
COc1ccc(C2c3cc4c(cc3OC(Nc3ccccc3)C2C)OCO4)cc1 (stereo unspecified)	inactive: > 100 µM
CC(=O)Nc1ccc(S(=O)(=O)Nc2nc(-c3ccc(Cl)cc3)cc(N3N=C(c4ccc(Br)cc4)CC3c3ccccc3)n2)cc1 (stereo unspecified)	inactive: 12.2 µM

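Five compound concentrations were applied to cells in 96-well plates for 48 hours; endpoints were derived by simple linear interpolation of the resulting dose-response curve. The concentration for 50% growth inhibition is given as GI50.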 Active and inactive are the calls of the source. Cut-off read from the data, not from the text of the source: active = GI50 up to about 1.1 µM and inactive = higher. Peptide text beside a SMILES is read from it. * marks the point of attachment. Boc = CC(C)(C)OC(=O)*; Bn = c1ccc(C*)cc1
